About 6,400 (1.6%) of roughly 410,000 compounds were called active. Inconclusive means that the source gave no clear call. Such entries were picked first, then a sample of the others. The call rests on the fitted dose curve; in most records, active means well fitted inhibition curve with a large enough effect; inconclusive means small, poorly fitted or top-dose-only effect; inactive means no such curve, though single readings can be large or run the other way. No potency is given beside an inconclusive call; the fits are too rough.
Molecular target: Glucagon-like peptide 1 receptor (Homo sapiens) (UniProt P43220)
Test: qHTS of GLP-1 Receptor Inverse Agonists (Inhibition Mode); further: nearly all actives have a fitted effect of over 55% in size
Details: HEK293 GLP-1R CRE-luciferase, luminescence, 24 h, GLP-1R form is constitutively active; activity change, negative = inhibition: at 38.3 µM (top of the series) unless noted
Procedure, shortened: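 Cells are plated, allowed 12 hours at 37 deg C, then treated with compounds for 24 hr before luciferase detection reagent is added and luminescence is read after 12 min at room temperature. The HEK293 line carries constitutively active GLP-1R with a cAMP-responsive reporter.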
On the % scale 0 is the no-effect control and ±100 the full control effect; potency means the concentration at half of the fitted maximal effect; tags describe the fitted curve by direction and shape.

Chain of UniProt P43220 (P43220 whole entry, looked up): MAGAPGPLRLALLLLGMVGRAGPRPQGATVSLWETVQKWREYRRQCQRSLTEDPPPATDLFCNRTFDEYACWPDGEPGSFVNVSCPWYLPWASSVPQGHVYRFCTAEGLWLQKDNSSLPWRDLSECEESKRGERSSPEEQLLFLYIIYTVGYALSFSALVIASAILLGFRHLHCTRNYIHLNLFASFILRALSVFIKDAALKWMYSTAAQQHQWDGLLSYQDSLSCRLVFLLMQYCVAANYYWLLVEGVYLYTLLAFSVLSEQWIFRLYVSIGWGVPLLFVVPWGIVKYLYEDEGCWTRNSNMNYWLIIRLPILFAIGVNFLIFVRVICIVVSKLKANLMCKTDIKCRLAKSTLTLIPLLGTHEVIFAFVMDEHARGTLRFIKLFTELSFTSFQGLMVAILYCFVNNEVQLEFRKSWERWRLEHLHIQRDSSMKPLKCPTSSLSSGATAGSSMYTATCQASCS

| Compound | Potency | activity change, negative = inhibition |
| --- | --- | --- |
| Cc1ccc(C(=O)N2c3ccc(C)cc3C(C)(c3ccccc3)CC2(C)C)cc1 (stereo not given) | inconclusive [inhibitor, partial curve, poor fit] | – |
| CC1(C(=O)Nc2ccc3c(c2)OCCO3)CN(S(C)(=O)=O)CC(=O)N1CCCN1CCOCC1 (stereo not given) | inactive | – |
| CC(C)CN1CCN(Cc2ccc(Oc3ncccn3)cc2)CC1CCO (stereo not given) | inactive | – |
| COc1cc(/C=N/NC(=O)COc2c(C)cc([N+](=O)[O-])cc2C)ccc1OC(=O)c1ccccc1Br | inconclusive [inhibitor, partial curve, poor fit] | – |
| COc1ccc(OCC(=O)NCc2ccc3c(c2)CCN3C(=O)c2ccccc2)cc1 | inconclusive [inhibitor, full curve, poor fit] | – |
| COc1ccc(CN2CCN(CCSc3ccc(C)cc3)CC2)c(OC)c1OC | inconclusive [inhibitor, single point] | – |
| CCOC(=O)C1CCCN(C(=O)COc2ccc(C(=O)c3ccccc3)cc2)C1 (stereo not given) | active: 1.58 µM | – |
| O=S(=O)(c1ccc(Br)s1)N1CCCCC1 | inconclusive [inhibitor, single point] | – |
| Cc1cc2oc(C(=O)Nc3ccc(S(N)(=O)=O)cc3)cc(=O)c2cc1C | inactive | – |
| CCOC(=O)c1c(COc2ccccc2)oc2ccc(O)cc12 | inconclusive [inhibitor, single point] | – |
| CN(C)CCCN(C(=O)COc1ccccc1)c1nc2ccc(Cl)cc2s1 | inconclusive [inhibitor, partial curve, poor fit] | – |
| CC1(C)Cc2c(sc3nnn(Cc4ccccc4)c(=O)c23)CO1 | inconclusive [inhibitor, partial curve, poor fit] | – |
| O=C(NCCc1ccccc1)c1cnc2sc(N3CCCCCC3)nn2c1=O | inactive | – |
| O=C(Nc1ccc(Br)cc1)c1ccc(F)c(S(=O)(=O)NCc2cccs2)c1 | inconclusive [inhibitor, partial curve, poor fit] | – |
| FC(F)C(F)(F)Oc1cccc(Nc2nccn3c(-c4cccc5cccnc45)cnc23)c1 | inconclusive [inhibitor, single point] | – |
| O=C(CCn1cnc2ccccc21)N=Nc1c(O)[nH]c2ccccc12 | inactive | – |
| CCCN(CCC)CC(=O)Nc1cccc2c1OCO2 | inconclusive [inhibitor, single point] | – |
| COC(=O)c1[nH]c2ccc(C)cc2c1NS(=O)(=O)c1ccc(F)cc1 | inconclusive [inhibitor, partial curve, poor fit] | – |
| CCN(c1ccccc1)S(=O)(=O)c1cc(C(=O)Nc2ccc(F)c(F)c2)ccc1F | active: 1.41 µM | – |
| O=C(Nc1ccc(OCc2ccccc2Cl)cc1)c1cccnc1 | inconclusive [inhibitor, partial curve, poor fit] | – |

| Compound | Potency | activity change, negative = inhibition |
| --- | --- | --- |
| CCCCOc1ccc(-c2nn(-c3ccccc3)cc2C2NC(=O)NC(C)=C2C(=O)OCC)cc1 (stereo not given) | inconclusive [inhibitor, single point] | – |
| COc1ccccc1N1CCN(C(=O)c2cccc(S(=O)(=O)N3CCCCCC3)c2)CC1 | inconclusive [inhibitor, single point] | – |
| CC(C)N1CCN(c2ccc(OCC3COC(Cn4cncn4)(c4ccc(Cl)cc4Cl)O3)cc2)CC1 (stereo not given) | inconclusive [inhibitor, partial curve, poor fit] | – |
| c1ccc(C(c2nnnn2C2CCCC2)N2CCN(c3ccccc3)CC2)cc1 (stereo not given) | inconclusive [inhibitor, single point] | – |
| Cc1ccc2c(CC(=O)Nc3sccc3C(N)=O)coc2c1 | inactive | – |
| N=c1sccn1CC(=O)Nc1ccc([N+](=O)[O-])cc1Cl | inconclusive [inhibitor, single point] | – |
| Cc1ccc(CNC(=O)c2ccc3c(c2)nc(C)n3-c2cccc(F)c2)cc1 | inconclusive [inhibitor, single point] | – |
| Cc1ccccc1OCc1nnc(SCc2cc(=O)[nH]c3ccccc23)n1-c1ccccc1 | inconclusive [inhibitor, partial curve, poor fit] | – |
| COc1ccc(/C=N\NC(=O)c2ccccc2Br)cc1COc1c(F)c(F)cc(F)c1F | inconclusive [inhibitor, single point] | – |
| CCNc1nc(NC(C)C)nc(SCCOC(=O)c2ccccc2)n1 | active: 10 µM | – |
| CN[C@H]1CCc2cc(OC)c(OC)c(OC)c2-c2ccc(N(C)CC(OC)OC)c(=O)cc21 | inconclusive [inhibitor, partial curve, poor fit] | – |
| S=C(Nc1ccc(Cl)c(Cl)c1)N1CCCC1 | – | inconclusive: -52.9% [inhibitor] |
| Cc1cccc(Cn2c(=O)c3c(nc4n3CCCN4Cc3ccccc3)n(C)c2=O)c1 | inconclusive [inhibitor, partial curve, poor fit] | – |
| O=C1OCCN1C(=O)[C@H]1[C@H](c2ccc(Cl)cc2)C(c2cccc(Cl)c2)=NN1c1ccccc1 | inconclusive [inhibitor, partial curve, poor fit] | – |
| CC(C)(C)c1ccc(C(=O)N2CCOC23CCCCC3)cc1 | inconclusive [inhibitor, partial curve, poor fit] | – |
| Cc1cc(N/N=C/c2c(O)ccc3ccccc23)nc(-c2ccccc2O)n1 | inconclusive [inhibitor, full curve, poor fit] | – |
| Cc1cc(NC(=O)Nc2ccccc2F)ccc1Br | inconclusive [inhibitor, full curve, poor fit] | – |
| COc1ccc(-c2nc3cc(C)ccn3c2NCc2ccc3c(c2)OCO3)cc1 | inconclusive [inhibitor, single point] | – |
| O=c1[nH][nH]c2c1[C@H](c1ccccc1)O[C@H](C1CCCCC1)C2 | inconclusive [inhibitor, partial curve, poor fit] | – |
| Cc1cc2oc(=O)sc2cc1NS(=O)(=O)c1ccccc1 | inconclusive [inhibitor, single point] | – |
